Experimental findings from paper PMC13288994, “Identification and characterization of novel chikungunya virus polymerase inhibitors” (Journal of Virology, 2026) are described below.

Like-named read-outs stand apart in the source and are kept apart here.

Experiment [1] deals with CHIKV-nLuc. Briefly: microbe, parasite or virus in culture. The note with it: 96-well, vendor-sourced compound, read-out: Antiviral potency (EC50 [µM]) CHIKV (Vero). Format: cell-based.
The test system of experiment [2] is CHIKV-nLuc. Briefly: microbe, parasite or virus in culture. The note with it: Chikungunya virus, U2OS, read-out: Antiviral potency (EC50 [µM]) CHIKV (U-2 OS).
Experiment [3] relates to CHIKV-nLuc. Conditions: read-out: Antiviral potency (EC50 [µM]) CHIKV (U-2 OS).

As for `CC(C)(C)c1ccc(C(=O)On2c(-c3ccccc3F)nc3ccccc3c2=O)cc1` [GAP-1000864], the EC50 (commonly the concentration giving half of the maximal effect) is over 10 µM in experiment [1] (Chikungunya virus, Vero) and about 10 µM in experiment [2].
The matching figures for `CCN1CCc2nc3sc(C(=O)c4ccccc4)c(C)c3cc2C1` [GAP-1022776]: 7.7 µM and 9.1 µM.
The matching figures for `O=C(CSc1c2c(nc3cc(Cl)ccc13)CCCC2)Nc1ccc2c(c1)OCCO2` [GAP-1022901]: 3.76 µM and over 10 µM.
Taken in the same sequence, the figures for `Cc1ccc(NC(=O)c2oc3ccccc3c2NC(=O)c2nc(S(C)(=O)=O)ncc2Cl)cc1` [GAP-1027276] were about 10 µM and about 10 µM.
For `CCS(=O)(=O)c1ncc(Cl)c(C(=O)Nc2nnc(C(C)C)s2)n1` [GAP-1027282], the EC50 is over 10 µM in experiment [1] (Chikungunya virus, Vero) and 1.9 µM in experiment [2].
The matching figures for `Cc1ccc2sc(N(CCCN(C)C)C(=O)c3nc4ccccc4s3)nc2c1C` [GAP-1041908]: 22.2 µM and 13.3 µM.
For the molecule `CCNc1cc(C)nc(N2CCN(C(=O)c3cccc4ccccc34)CC2)n1` [GAP-1066658], the EC50 in experiment [1] (Chikungunya virus, Vero) was 3.2 µM; in experiment [2], 3.1 µM.
The matching figures for `Cn1nc(CN(C(=O)c2ccc(F)cc2)c2ccccc2)c2c1CCN(S(=O)(=O)Cc1ccccc1F)C2` [GAP-1081237]: 10.5 µM and 9.1 µM.
Regarding `O=C(CN1C(=O)CNC1=O)NCc1n[nH]c2c1CCCCC2` [GAP-1173149, 2-(2,5-dioxoimidazolidin-1-yl)-N-(1,4,5,6,7,8-hexahydrocyclohepta[d]pyrazol-3-ylmethyl)acetamide], the EC50 in experiment [1] (Chikungunya virus, Vero) was found to be 18.6 µM; in experiment [2], 15.6 µM.
Regarding “N-[2-(4-fluorophenyl)ethyl]-1,5-dimethyl-N-[(2-methylpyrazol-3-yl)methyl]pyrazole-4-sulfonamide [GAP-1146924]”, the results for the EC50 in experiment [1] and in experiment [3] were 19 µM and 24.1 µM, respectively.
